Assay results taken from the supplement of paper PMC4967469.

Legend:
Test in all cases: Viability of human cancer cell lines after 72 h of drug (GDSC screen)
[1] = compound: Nc1ccccc1NC(=O)c1ccc(CNC(=O)OCc2cccnc2)cc1 [MS-275]; settings: top dose 5 µM; top dose inferred
Method: (§1)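 Human cancer cell lines in 384-well plates, medium with 10% serum, drug for 72 h over a 256-fold dose range (nine 2-fold or five 4-fold steps up to the top dose). Adherent lines were fixed and stained with the nucleic acid dye Syto60, suspension lines read with resazurin; signal relative to control wells, capped at 0 and 100%. One two-parameter sigmoid per drug and line, fitted in a mixed model over all curves with the slope shared within a line.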

[2] = compound: CCN1CCN(Cc2ccc(NC(=O)c3ccc(C)c(/C=C/c4cnc5[nH]ccc5c4OC)c3)cc2C(F)(F)F)CC1 [HG-6-64-1]; settings: top dose 5.12 µM; top dose inferred
Method: as §1

[3] = compound: CCNC(=O)C[C@@H]1N=C(c2ccc(Cl)cc2)c2cc(OC)ccc2-n2c(C)nnc21 [I-BET-762]; settings: top dose 20 µM; top dose inferred
Method: as §1

[4] = compound: COc1cc2nccc(Oc3ccc(NC(=O)Nc4cc(C)on4)c(Cl)c3)c2cc1OC [AV-951]; settings: top dose 0.128 µM; top dose inferred
Method: as §1

[5] = compound: CCc1cncnc1N1CCN(Cc2nc3ccc(C(F)(F)F)cc3[nH]2)CC1 [PF-4708671]; settings: top dose 10 µM; top dose inferred
Method: as §1

[6] = compound: CC(=O)Nc1cccc(-n2c(=O)n(C3CC3)c(=O)c3c(Nc4ccc(I)cc4F)n(C)c(=O)c(C)c32)c1 [Trametinib]; settings: top dose 1 µM
Method: as §1

[7] = compound: O=C(NC(COc1ccc2[nH]c(=O)[nH]c2c1)c1ccccc1)c1cccn(Cc2ccc(F)c(F)c2)c1=O [KIN001-244]; settings: top dose 20 µM; top dose inferred
Method: as §1

Cell Line | AUC [1] | IC50 [1] [nM] | AUC [2] | IC50 [2] [nM] | AUC [3] | IC50 [3] [nM] | AUC [4] | IC50 [4] [nM] | AUC [5] | IC50 [5] [nM] | AUC [6] | IC50 [6] [nM] | AUC [7] | IC50 [7] [nM]
AM-38 (glioma, semi-adherent) | 0.983 | > 5000 | 0.812 | 2810 | 0.96 | > 20000 | 0.977 | > 128 | 0.963 | > 10000 | 0.981 | > 1000 | 0.658 | 3460
AMO-1 (haematopoietic neoplasm, suspension) | 0.752 | 1450 | 0.934 | > 5120 | 0.685 | 3770 | 0.983 | > 128 | 0.974 | > 10000 | 0.885 | 825 | 0.747 | 5630
ARH-77 (myeloma, suspension) | 0.544 | 410 | 0.796 | 2290 | 0.835 | 12400 | 0.98 | > 128 | 0.918 | > 10000 | 0.941 | > 1000 | 0.867 | 16900
ATN-1 (T-cell lymphoblastic leukaemia, suspension) | 0.513 | 338 | 0.981 | > 5120 | 0.928 | > 20000 | 0.983 | > 128 | 0.909 | > 10000 | 0.986 | > 1000 | 0.85 | 13700
BB30-HNC (head and neck, adherent) | 0.726 | 1350 | 0.517 | 357 | 0.912 | > 20000 | 0.985 | > 128 | 0.968 | > 10000 | 0.398 | 33.1 | 0.867 | 17500
BB49-HNC (head and neck, adherent) | 0.745 | 2150 | 0.786 | 3260 | 0.964 | > 20000 | 0.978 | > 128 | 0.874 | > 10000 | 0.232 | 7.32 | 0.972 | > 20000
BB65-RCC (kidney, adherent) | 0.764 | 2080 | 0.79 | 2660 | 0.977 | > 20000 | 0.981 | > 128 | 0.982 | > 10000 | 0.494 | 60.1 | 0.897 | > 20000
BC-1 (B-cell lymphoma, suspension) | 0.572 | 477 | 0.897 | 4720 | 0.53 | 1490 | 0.985 | > 128 | 0.897 | 9170 | 0.902 | 973 | 0.825 | 9710
BE2-M17 (neuroblastoma, adherent) | 0.771 | 1980 | 0.975 | > 5120 | 0.967 | > 20000 | 0.986 | > 128 | 0.976 | > 10000 | 0.837 | 701 | 0.917 | > 20000
BE-13 (lymphoblastic leukaemia, suspension) | 0.573 | 488 | 0.137 | 25.9 | 0.817 | 10200 | 0.947 | > 128 | 0.869 | 8190 | 0.973 | > 1000 | 0.836 | 12000
BL-41 (Burkitt lymphoma, suspension) | 0.597 | 539 | 0.63 | 667 | 0.508 | 1310 | 0.988 | > 128 | 0.99 | > 10000 | 0.991 | > 1000 | 0.757 | 5480
BT-474 (breast, adherent) | 0.746 | 1740 | 0.935 | > 5120 | 0.958 | > 20000 | 0.981 | > 128 | 0.908 | > 10000 | 0.984 | > 1000 | 0.87 | > 20000
BV-173 (chronic myeloid leukaemia, suspension) | 0.5 | 312 | 0.535 | 395 | 0.507 | 1300 | 0.865 | 91.3 | 0.931 | > 10000 | 0.733 | 261 | 0.913 | > 20000
C2BBe1 (large intestine, adherent) | 0.934 | > 5000 | 0.772 | 2260 | 0.95 | > 20000 | 0.982 | > 128 | 0.958 | > 10000 | 0.663 | 189 | 0.9 | > 20000
CA46 (Burkitt lymphoma, suspension) | 0.903 | > 5000 | 0.499 | 317 | 0.452 | 915 | 0.981 | > 128 | 0.909 | > 10000 | 0.955 | > 1000 | 0.821 | 12700
CAS-1 (glioma, adherent) | 0.894 | > 5000 | 0.755 | 2330 | 0.875 | > 20000 | 0.977 | > 128 | 0.978 | > 10000 | 0.719 | 331 | 0.912 | > 20000
CCRF-CEM (lymphoblastic leukaemia, suspension) | 0.643 | 721 | 0.859 | 3190 | 0.601 | 2250 | 0.989 | > 128 | 0.977 | > 10000 | 0.973 | > 1000 | 0.38 | 620
CESS (acute myeloid leukaemia, suspension) | 0.672 | 868 | 0.799 | 2070 | 0.381 | 620 | 0.989 | > 128 | 0.978 | > 10000 | 0.949 | > 1000 | 0.39 | 654

A lower IC50 marks a more sensitive line; where the fit passes the top or lowest dose, that dose stands as a limit. For AUC the same curve is integrated over the 256-fold range of doses and scaled to a fraction; values near 1 show little effect. For part of these data: An inferred top dose is not printed in the source and was worked back from the curve model.
